Results published in PubChem BioAssay AID686979 (National Center for Advancing Translational Sciences (NCATS), 2013).
In all, about 420,000 compounds went through this assay and about 50,000 (12%) were called active. Inconclusive means that the source gave no clear call. Such entries were picked first, then a sample of the others. Calls come from the whole dose curve; as a rule, active = well fitted inhibition curve with a large enough effect; inconclusive = small, poorly fitted or top-dose-only effect; inactive = flat fitted curve, though single readings scatter. Potencies of inconclusive entries are left out as doubtful fits.

test: qHTS for Inhibitors of human tyrosyl-DNA phosphodiesterase 1 (TDP1): qHTS in cells in presence of CPT; details: chicken DT40 Tdp1-/-;hTDP1 cells + 20 nM CPT, ATP luminescence, 48 h; activity change, negative = growth inhibition: at 46.2 µM (top of the series); note: nearly all actives have a fitted effect of over 55% in size
In short: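 Cell growth measured by CellTiter-Glo luminescence after a minimum 48 h, 37 C compound exposure with 20 nM CPT in Tdp1-knockout DT40 cells stably expressing hTDP1, seeded 400/well; qHTS titration format.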
% is set by controls: 0 for no effect and ±100 for the full control effect; potency is the fitted concentration of half-maximal effect; tags give direction and shape of the fitted curve.

Structure (SMILES)	Potency	activity change, negative = growth inhibition
COc1ccc(NC(=O)N2CC[C@@]3(CCCN(C(C)=O)C3)C2)cc1	inconclusive [inhibitor, full curve, poor fit]	
O=C(c1cc(C(F)(F)F)cc(C(F)(F)F)c1)N1CCC[C@@]2(CCN(c3ccccc3)C2)C1	inconclusive [inhibitor, single point]	
Cc1cccc(N2CCN(C(=O)c3cccn4c(=O)c5cc(Cl)ccc5nc34)CC2C)c1 (centres undefined)	active: 18.4 µM	
CCc1ccc(C(C)NC(=S)NCc2ccc(F)cc2)cc1 (centres undefined)	inconclusive [inhibitor, single point]	
COc1ccc(OC)c(C2C3=C(CCCC3=O)NC3=C2C(=O)CCC3)c1		inactive: -23.4%
CCOC(=O)C(=C1Nc2ccccc2N1)n1c(-c2ccco2)nc2ccccc21	active: 7.31 µM	
COc1cc(OC)c(C(=O)OCC(=O)NC23CC4CC(CC(C4)C2)C3)cc1OC	inconclusive [inhibitor, partial curve]	
Cc1onc(-c2ccccc2)c1-c1n[nH]c(=S)n1-c1ccccc1		inactive: -2.69%
CC(OC(=O)CNC(=O)c1sc2ccccc2c1Cl)c1ccccc1 (centres undefined)		inactive: -17%
CC(=O)c1c(N2CCN(Cc3ccccc3)CC2)nc(=S)n(Cc2ccccc2)c1C	active: 16.4 µM	
Cc1cc(S(=O)(=O)NCC(c2ccc3c(c2)OCO3)N2CCOCC2)ccc1F (centres undefined)	inconclusive [inhibitor, single point]	
Cc1ccc(Cn2c(SCC(=O)NCc3ccco3)nc3ccsc3c2=O)cc1		inconclusive: -30.5% [inhibitor]
CN1CCc2c(sc3c2C(=O)NC(c2ccccc2)N3)C1 (centres undefined)	inconclusive [inhibitor, single point]	
CSc1ccc(/C=N\NC(=O)CC(=O)NC(C)C)cc1		inactive: -1.78%
COc1ccccc1CCC(=O)N(Cc1ccccc1)c1c(N)n(Cc2ccccc2)c(=O)[nH]c1=O	inconclusive [inhibitor, single point]	
O=C(CCCN1C(=O)/C(=C/c2ccccc2Cl)SC1=S)NNC(=O)c1ccncc1	inconclusive [inhibitor, single point]	
CN(Cc1c(F)cccc1Cl)C(=O)c1cccc(S(=O)(=O)N2CCN(Cc3ccccc3)CC2)c1	active: 20.6 µM	
CC12COC3(P(=O)(c4ccccc4)c4ccccc4)CC1CCC23CP(=O)(c1ccccc1)c1ccccc1 (centres undefined)	inconclusive [inhibitor, single point]	
Cc1ccc(C)c(S(=O)(=O)N2CCN(CC(=O)Nc3ccc4c(c3)CCC4)CC2)c1	inconclusive [inhibitor, single point]	
